Experimental data published in PubChem BioAssay AID686979 (National Center for Advancing Translational Sciences (NCATS), 2013).
The campaign covered roughly 420,000 compounds. About 50,000 (12%) were called active. This list was built around the results that the source calls inconclusive (neither active nor inactive); the mix of calls is not that of the screen. Calls come from the whole dose curve; as a rule, active = well fitted inhibition curve with a large enough effect; inconclusive = small, poorly fitted or top-dose-only effect; inactive = flat fitted curve, though single readings scatter. Potencies of inconclusive entries are left out as doubtful fits.

Assay: qHTS for Inhibitors of human tyrosyl-DNA phosphodiesterase 1 (TDP1): qHTS in cells in presence of CPT; note: nearly all actives have a fitted effect of over 55% in size
Conditions: chicken DT40 Tdp1-/-;hTDP1 cells + 20 nM CPT, ATP luminescence, 48 h; activity change, negative = growth inhibition: at 46.2 µM (top of the series) unless noted
Method in brief: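 Chicken DT40 Tdp1-/- cells stably complemented with human TDP1 were seeded at 400 cells/well in medium containing 20 nM camptothecin, exposed to pin-transferred compounds, and grown at 37 °C for at least 48 hr. Viability was read as ATP luminescence.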
% is set by controls: 0 for no effect and ±100 for the full control effect; potency is the fitted concentration of half-maximal effect; tags give direction and shape of the fitted curve.

SMILES | Potency | activity change, negative = growth inhibition
O=C(c1cccc(S(=O)(=O)N2CCCc3ccccc32)c1)N1CCN(c2ccccc2)CC1 | inconclusive [inhibitor, single point] | 
CCCC1COC(Cn2cncn2)(c2ccc(C)cc2)O1 (stereo unspecified) | active: 23.1 µM | 
CCc1ccc(C2CC(c3ccc(Cl)cc3)=NNC2=O)cc1 (stereo unspecified) | inconclusive [inhibitor, single point] | 
C=C1C(=O)O[C@H]2[C@H]1[C@@H](O)CC(=C)[C@@H]1CC(=O)[C@@H](C)[C@H]21 | active: 5.17 µM | 
Cc1cc(C=C(C#N)C#N)c(C)n1-c1ccccc1 | inconclusive [inhibitor, single point] | 
CCOC(=O)c1nnn(-c2nonc2-n2cccc2)c1CN1CCC(C(=O)OCC)CC1 | active: 18.4 µM | 
CCOC(=O)c1cnc2c(ccc3ccccc32)c1NCCO | inconclusive [inhibitor, single point] | 
COc1ccccc1C1CC(=O)NC(C)=C1C(=O)OC(C)C (stereo unspecified) | inconclusive [inhibitor, single point] | 
COC(=O)C[C@H]1N(S(=O)(=O)c2ccc(C)cc2)C(C(C)C)CC1(C(=O)OC)C(=O)OC (stereo partly specified) | inconclusive [inhibitor, single point] | 
CCOC(=O)c1nc(Nc2ccc(C(=O)OC(C)C)cc2)c2ccccc2n1 | active: 5.17 µM | 
COc1ccc(OC)c(C=NNC(=O)NN=Cc2cc(OC)ccc2OC)c1 | inconclusive [inhibitor, single point] | 
CC(=O)N1CCOc2ccc(S(=O)(=O)N3C(C)CCCC3C)cc21 (stereo unspecified) | inconclusive [inhibitor, partial curve] | 
CCOC(=O)C1=CCN(S(=O)(=O)c2ccccc2Br)C1c1ccc(Cl)c(Cl)c1 (stereo unspecified) | inconclusive [inhibitor, single point] | 
CCC(C)n1c(SCc2ccccc2)nc2ccsc2c1=O (stereo unspecified) | inconclusive [inhibitor, single point] | 
Cc1cc(C)nc(N2CCC(C(=O)NCCc3ccc(Cl)cc3)CC2)n1 | active: 13 µM | 
O=c1[nH]c(N2CCCCCC2)nc2ncn(Cc3ccccc3)c12 |  | inactive: -4.9%
Cc1cc(C)nc(NC2=NCC(=O)N2c2ccc(F)c(Cl)c2)n1 |  | inconclusive: -32.5% [inhibitor]
COc1ccc([N+](=O)[O-])cc1NC(=O)COC(=O)Cn1cnc2ccccc2c1=O |  | inactive: -4.22%
CCOc1ccccc1NC(=O)CN1CCCCCC1 | inconclusive [inhibitor, single point] | 
COc1ccc(S(=O)(=O)N(C)C[C@H]2Oc3c(NC(=O)Nc4c(C)noc4C)cccc3C(=O)N([C@@H](C)CO)C[C@H]2C)cc1 |  | inactive: 0.794%
Cc1cc(C)c(N=Cc2c(O)c3ccccc3oc2=O)c(C)c1 |  | inactive: -3.87%
CN(CCNC(=O)C1CCCN(c2ncnc3c2nc2n3CCCCC2)C1)Cc1ccccc1 (stereo unspecified) | inconclusive [inhibitor, single point] | 
C#CCSc1nnnn1-c1ccc(Br)c(C)c1 |  | inactive: 12.3%
CNC(=O)c1ccc2c(c1)N(Cc1cc(C)ccc1C)C(=O)c1ccccc1S2 | inconclusive [inhibitor, single point] | 

SMILES | Potency | activity change, negative = growth inhibition
COc1ccc2cc3cc(C(=O)NCC4CCCO4)oc3nc2c1 (stereo unspecified) |  | inactive: 0.953%
Cc1cc(-c2cc(-c3ccccc3)on2)nc(NC2CCCC2)n1 | inconclusive [inhibitor, partial curve, poor fit] | 
O=C(CN1C(=O)CC(c2ccccc2)=Nc2ccccc21)Nc1ccc(Br)cc1 | inconclusive [inhibitor, single point] | 
O=C(NC1CCCCC1)C(c1ccccc1)n1c(=O)c(-c2cc3ccccc3[nH]2)nc2ccccc21 (stereo unspecified) | inconclusive [inhibitor, single point] | 
CCCOc1ncnc2c1[nH]c1ccccc12 | active: 23.1 µM | 
CC(C)c1cccc(-c2csc(C(O)c3ccc(F)cc3)n2)c1 (stereo unspecified) | inconclusive [inhibitor, single point] | 
COc1ccc2c(C)cc(SCC(=O)Nc3ccc(Cl)cn3)nc2c1 | inconclusive [inhibitor, single point] | 
Cc1nn(Cc2ccc(Cl)cc2)c(Cl)c1/C=N/NC(=O)CNc1ccccc1F | inconclusive [inhibitor, single point] | 
CCOc1ccc(NC(=O)C2CSC(c3ccncc3)=N2)cc1 (stereo unspecified) | active: 23.1 µM | 
CCN(Cc1cc(=O)n2ccsc2n1)Cc1nc2cc(OC)c(OC)cc2c(=O)[nH]1 |  | inactive: 7.06%
CC(=O)Nc1cc(-c2ccc(S(C)(=O)=O)cc2)cn2c(-c3ccc(F)cc3)cnc12 | inconclusive [inhibitor, single point] | 
COc1ccc([C@@H]2[C@@H]3C(=O)N(C(C)(C)C)C(=O)[C@@H]3[C@]3(Cc4ccccc4)C(=O)N(c4ccc(OC)cc4)C(=O)N23)cc1 |  | inactive: -2.63%
CC(C)c1ccc(NC(=O)CN2C(=O)NC(Cc3c[nH]c4ccccc34)C2=O)cc1 (stereo unspecified) | inconclusive [inhibitor, single point] | 
O=[N+]([O-])c1cccc(COc2cccc(CN3CCCC3)c2)c1 | inconclusive [inhibitor, partial curve, poor fit] | 
O=C(Nc1ccc(OC(F)(F)F)cc1)Nc1cccc([N+](=O)[O-])c1 | active: 2.91 µM | 
CCC1C(=O)NCCN1Cc1ccc2c(c1)CN(Cc1ccc(F)c(OC)c1)CCO2 (stereo unspecified) |  | inactive: -6.22% [at 9.04 µM]
Fc1cccc(NC(=S)NCc2ccccc2Cl)c1 | inconclusive [inhibitor, single point] | 
COCCn1c(=O)c(-c2ccc(OC)cc2)nc2cnc(N3CCN(C)CC3)nc21 | inconclusive [inhibitor, single point] | 
Cc1cccc(C)c1NC(=O)CNC(=O)c1ccc(NS(=O)(=O)c2ccc3[nH]c(=O)[nH]c3c2)cc1 |  | inactive: -3.15%
CCNC(=S)N/N=C/c1cccc(C)c1 | inconclusive [inhibitor, single point] | 
CCCN1CCN(C(=O)Cn2c(-c3cccs3)cc3cc(F)ccc32)CC1 | active: 11.6 µM | 
CCN(CC(=O)Nc1ccc(NC(C)=O)cc1)C(=O)/C=C/c1cn(-c2ccccc2)nc1-c1cccs1 | inconclusive [inhibitor, single point] | 
Cc1ccc(Nc2nc(Cl)c(C=O)s2)cc1Cl | inconclusive [inhibitor, single point] | 
CNC(=O)N(O)C1N(C)C(=O)N(CC(=O)OC)C1(C)C (stereo unspecified) |  | inactive: -0.955%

SMILES | Potency | activity change, negative = growth inhibition
O=C(O)C(CO)(c1ccccc1)c1ccccc1 |  | inactive: -5.93%
CCc1ccc(/C=C/C(=O)c2c(C)cc(C)[nH]c2=O)cc1 | active: 16.4 µM | 
CCN1CCCC(OC(=O)c2cc(-c3ccccc3Cl)nc3ccccc23)C1 (stereo unspecified) | inconclusive [inhibitor, single point] | 
COc1ccc(CNC(=O)c2sc(=O)n(Cc3ccccc3OC)c2C)cc1 | inconclusive [inhibitor, single point] | 
Cc1ccc(NC(=O)CS(=O)CC(=O)Nc2ccccc2-c2ccc(C)o2)cc1 (stereo unspecified) | inconclusive [inhibitor, single point] | 
O=C(Nc1nnc(SCc2ccccc2F)s1)C1=COCCO1 |  | inactive: 2.63%
CCNC(=O)C1(C)CCCN(C(=O)Cc2ccc(OC)c(OC)c2)C1 (stereo unspecified) |  | inactive: 3.68%
CC1CCC2(CC1)NC(=O)N(CC(=O)Nc1ccc(N3CCCCC3)cc1)C2=O (stereo unspecified) | inconclusive [inhibitor, single point] | 
COCc1ccc(CN2CCCC(CO)(Cc3cccc(OC)c3)C2)o1 (stereo unspecified) | inconclusive [inhibitor, partial curve] | 
COC(=O)c1ccc(N2CCN(C)CC2)c(NC(=O)COc2ccc(C)cc2)c1 | inconclusive [inhibitor, single point] | 
N=C1S/C(=C\c2ccco2)C(=O)N1c1ccc2c(c1)OCO2 | inconclusive [inhibitor, full curve] | 
Cc1ccnc(N2CCC(C(=O)Nc3ccc4c(c3)OCO4)CC2)n1 |  | inactive: -18%
COc1cc2ccccc2cc1C(=O)OCC(=O)Nc1ccc(Br)cc1 | active: 7.94 µM | 
COc1cccc2cc(C(=O)NCc3ccccc3)c(=N)oc12 | active: 20.6 µM | 
CCOC(=O)c1c(NC(=O)CSc2cn(CCNC(=O)c3ccc(OC)cc3)c3ccccc23)sc2c1CCCC2 | inconclusive [inhibitor, partial curve] | 
Cc1cccn2c(=O)c3cc(C(=O)NCC4CCCO4)c(=N)n(Cc4cccnc4)c3nc12 (stereo unspecified) | active: 18.4 µM | 
CCCc1nc(NC2CCCCC2)c(C#N)c2c1COC(C)(C)C2 | active: 18.4 µM | 
COCCCn1c(SCc2cccc(OC)c2)nc2cc(OC)c(OC)cc2c1=N | inconclusive [inhibitor, partial curve] | 
O=C(Cc1nnc(NC(=O)Nc2ccccc2)s1)Nc1ccccc1 |  | inactive: -1.19%
COc1cccc(NC(=S)N(CCc2c(C)[nH]c3ccccc23)Cc2cccs2)c1 | inconclusive [inhibitor, single point] | 
COc1ccc(S(=O)(=O)N(C)C[C@@H]2OCCCC[C@H](C)Oc3ccc(NC(=O)Nc4ccc(C(F)(F)F)cc4)cc3C(=O)N([C@H](C)CO)C[C@H]2C)cc1 |  | inactive: 19.2%
OCC1CCCN(c2nc(CN3CCCCC3)nc3scc(-c4ccccc4)c23)C1 (stereo unspecified) | active: 14.6 µM | 
O=C(CSc1ncc2c(n1)-c1cc(Cl)ccc1N(Cc1ccccc1)S2(=O)=O)NCCc1ccccc1 | inconclusive [inhibitor, single point] | 
